The values that follow come from PMC4336329 (PLoS ONE, 2015).

Structures are written as SMILES. About 2,200 (0.71%) of roughly 310,000 compounds showed an effect of 50% or more. Effects have a minus sign here. This is one part of the list.

For this experiment, the target named is human ether-à-go-go-related gene (hERG) potassium channel (human, UniProt Q12809). Briefly: primary screen, population patch clamp on CHO cells stably expressing hERG.
Sequence of human ether-à-go-go-related gene (hERG) potassium channel (Q12809 whole entry, looked up): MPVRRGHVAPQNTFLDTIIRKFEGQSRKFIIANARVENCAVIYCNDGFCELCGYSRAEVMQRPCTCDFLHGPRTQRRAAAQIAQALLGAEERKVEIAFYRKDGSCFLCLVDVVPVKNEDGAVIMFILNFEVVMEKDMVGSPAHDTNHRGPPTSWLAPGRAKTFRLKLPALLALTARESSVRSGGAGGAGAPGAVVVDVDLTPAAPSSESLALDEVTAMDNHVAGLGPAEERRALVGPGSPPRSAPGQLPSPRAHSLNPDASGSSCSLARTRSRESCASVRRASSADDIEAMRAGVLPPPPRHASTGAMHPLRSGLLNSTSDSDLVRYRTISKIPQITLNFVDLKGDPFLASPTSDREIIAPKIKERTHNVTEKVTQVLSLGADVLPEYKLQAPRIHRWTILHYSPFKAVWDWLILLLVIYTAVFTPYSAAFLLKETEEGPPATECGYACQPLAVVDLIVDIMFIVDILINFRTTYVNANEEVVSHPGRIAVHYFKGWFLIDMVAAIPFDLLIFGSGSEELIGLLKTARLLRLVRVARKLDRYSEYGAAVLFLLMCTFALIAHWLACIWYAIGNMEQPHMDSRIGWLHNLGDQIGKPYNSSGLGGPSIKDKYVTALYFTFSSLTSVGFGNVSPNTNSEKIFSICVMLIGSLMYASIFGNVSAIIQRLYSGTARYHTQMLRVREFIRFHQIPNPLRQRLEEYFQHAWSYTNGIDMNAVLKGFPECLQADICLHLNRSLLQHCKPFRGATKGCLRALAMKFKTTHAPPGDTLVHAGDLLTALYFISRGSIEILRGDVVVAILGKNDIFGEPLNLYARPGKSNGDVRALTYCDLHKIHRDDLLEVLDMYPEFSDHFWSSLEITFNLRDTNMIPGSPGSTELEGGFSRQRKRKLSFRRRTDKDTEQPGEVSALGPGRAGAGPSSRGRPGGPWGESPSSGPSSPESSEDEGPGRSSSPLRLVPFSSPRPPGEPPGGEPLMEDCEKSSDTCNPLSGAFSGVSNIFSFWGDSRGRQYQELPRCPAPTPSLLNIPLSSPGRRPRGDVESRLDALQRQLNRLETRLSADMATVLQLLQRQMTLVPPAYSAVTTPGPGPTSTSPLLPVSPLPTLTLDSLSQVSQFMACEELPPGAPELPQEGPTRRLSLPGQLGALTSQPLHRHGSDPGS
Regarding `CN(C)c1cccc(C(=O)NC2CCCc3ccccc32)c1` (stereo not shown), the “hERG current change (%, negative = inhibition) at 1uM” value is 11.3%.

In the case of `Cc1oc2ccc(O)c(CN(C)C)c2c1C(=O)c1ccccc1`, the “hERG current change (%, negative = inhibition) at 1uM” value is reported as -2.23%. For `CCC(C(=O)O)N1C(=O)c2ccccc2C1=O` (stereo not shown) the value was 8.49%; for `CC(C)NC(=O)c1ccc(N(Cc2ccc(Cl)cc2)S(C)(=O)=O)cc1`, 6.42%; for `Cc1nc(SCC(=O)c2ccccc2)[nH]c(=O)c1Oc1ccc(Cl)cc1`, 20.9%.

Regarding `CCCC(=O)NC(Nc1ccccc1F)C(Cl)(Cl)Cl` (stereo not shown), the “hERG current change (%, negative = inhibition) at 1uM” value stood at 1.86%. For `COC(=O)Cc1[nH]nc2c1C(c1c[nH]c3ccccc13)C(C#N)=C(N)O2` (stereo not shown) the value was 17.1%; for `O.O=c1c(O)c(-c2ccc(O)c(O)c2)oc2cc(O)cc(O)c12`, 18.6%. Consider `Clc1ccc(/C=C/c2nc(Cl)c(-c3ccc(Cl)cc3)c(Cl)n2)cc1`, for which the “hERG current change (%, negative = inhibition) at 1uM” value came out at 7.01%.

As for `O=C1c2ccccc2NC(c2ccc(Cl)cc2Cl)N1Cc1ccccc1` (stereo not shown), the “hERG current change (%, negative = inhibition) at 1uM” value was -5.12%. On to `Cc1ccccc1NC(=S)NNC(=O)c1ccncc1`, for which the “hERG current change (%, negative = inhibition) at 1uM” value was -11%. For `CC(=O)CSc1nc2c(c(=O)[nH]c(=O)n2C)n1Cc1ccccc1Cl` the value was 14.7%; for `CC(=O)Nc1ccc(C)cc1`, 7.25%. For `O=C(Cn1c(CN2CCCCC2)nc2ccccc2c1=O)NCc1ccco1` the value was -0.22%; for `CCOC(=O)C(=CNc1cc(C)nn1-c1ccc(C)cc1)C(=O)OCC`, -16.2%; for `CCOc1ccc(CN(C(=O)c2ccco2)C2CCS(=O)(=O)C2)cc1` (stereo not shown), 14.1%. On to `CC(C)(C)c1cc(C(=O)NNc2cc(C(F)(F)F)ccc2Cl)n(Cc2ccccc2)n1`, for which the “hERG current change (%, negative = inhibition) at 1uM” value came to 3.89%. With `CC(=O)N1c2ccc(S(=O)(=O)N3CCC(C(=O)NCc4ccc(N(C)C)cc4)CC3)cc2CC1C` (stereo not shown) the figure was 13%. Consider `Cc1cc(C)nc(N2CCC(C(=O)NCc3ccccc3)CC2)n1`, for which the “hERG current change (%, negative = inhibition) at 1uM” value turned out to be 9.61%. For `COc1ccc(C2CC(=O)c3cnc(N4CCN(Cc5ccccc5)CC4)nc3C2)cc1` (stereo not shown) the value was 13%; for `CCOC(=O)c1c(C)[nH]c(C(=O)Nc2ccc(NC(C)=O)cc2)c1C`, 2.49%. For `CSCCC(NC(=O)c1cccc([N+](=O)[O-])c1)C(=O)O` (stereo not shown), the “hERG current change (%, negative = inhibition) at 1uM” value is given as 5.08%. With `O=C(O)CSCC(=O)c1ccccc1`, the “hERG current change (%, negative = inhibition) at 1uM” value is reported as 11.7%. With `O=C(NC1CC(=O)N(c2ccccc2)C1)C1CC1` (stereo not shown) the figure was 3.29%. For `COc1ccc(Cl)cc1NC(=S)NCCSc1ccc(C)cc1` the value was 6.53%; for `COc1ccc(Nc2nc(N3CCCCC3)nc(N3CCCCC3)n2)c(OC)c1`, 10.1%; for `O=C(O)C(Cc1c[nH]c2ccccc12)N1C(=O)C2C3c4ccccc4C(c4ccccc43)C2C1=O` (stereo not shown), 14%.

Regarding `Cc1[nH]c(C)c(S(=O)(=O)NCc2ccc(F)cc2)c1C(=O)N1CCCCC1`, the “hERG current change (%, negative = inhibition) at 1uM” value is on record as 11.5%. For `Cn1c(C(=O)N2CCN(c3nc4ccccc4s3)CC2)cc2sccc21` the value was 7.74%.

`O=C(Nc1ccon1)c1cccc(S(=O)(=O)N2CCCCCC2)c1`: the “hERG current change (%, negative = inhibition) at 1uM” value is reported as 10.5%. `CCCOc1cccc(C(=O)Nc2ccc(Br)cc2F)c1`: the “hERG current change (%, negative = inhibition) at 1uM” value was -0.976%. On to `CC1CN(c2nc3ccccn3c(=O)c2C=O)CC(C)O1` (stereo not shown), for which the “hERG current change (%, negative = inhibition) at 1uM” value is given as 10.6%. For the molecule `COc1ccc(N(CC(=O)NCc2ccco2)S(=O)(=O)c2ccc(C)cc2)cc1`, the “hERG current change (%, negative = inhibition) at 1uM” value worked out at 4.12%. For `Cn1c(NCc2c(O)ccc3ccccc23)nc2ccccc21` the value was 10.1%; for `CC(=O)Nc1ccc(/C=N/Nc2nc3ccccc3[nH]2)cc1`, 9.12%; for `O=C(NCCc1ccccc1)N1c2ccccc2Sc2ccccc21`, -0.2%. With `CCN(CC(=O)Nc1c(F)cccc1F)C(=O)CCc1nc2ccccc2c(=O)[nH]1` the figure was 12.6%; with `CN(C)NC1CC(=O)N(c2ccccc2)C1=O` (stereo not shown), 16.3%; with `CSc1cnn(-c2ccccc2)c(=O)c1SC`, 21%. Take `COc1ccc(C)cc1S(=O)(=O)N(C)CC(=O)NC1CCCCC1`: the “hERG current change (%, negative = inhibition) at 1uM” value is 16.4%. Regarding `Cc1nn(C)c(C(=O)Nc2ccn(Cc3c(F)c(F)cc(F)c3F)n2)c1[N+](=O)[O-]`, the “hERG current change (%, negative = inhibition) at 1uM” value worked out at 4.4%. With `CCc1ccccc1NC(=O)CN(C)C(=O)Cn1cc(C(F)(F)F)cc(Cl)c1=O` the figure was 3.18%. With `Cn1nnnc1NC(=O)c1ccccc1Cl` the figure was 9.54%; with `O=C(c1ccccc1NS(=O)(=O)c1cccc(C(F)(F)F)c1)N1CCc2ccccc21`, 20.4%. With `COc1cc(C(=O)N2CCN(Cc3ccccn3)CC2)cc(OC)c1OC.O=C(O)C(=O)O` the figure was 9.8%; with `CN(C(=O)CCNC(=O)Cn1cnc2ccccc2c1=O)c1ccccc1F`, 6.94%; with `CC(C)Sc1nnc(CNC(=O)C23CC4CC(CC(C4)C2)C3)n1Cc1ccccc1`, 14%.

Consider `NS(=O)(=O)c1ccc(CCNC(=O)c2ccc(C(=O)c3ccccc3)cc2)cc1`, for which the “hERG current change (%, negative = inhibition) at 1uM” value is on record as 8.76%. With `COc1ccc(/C=N/NS(=O)(=O)c2ccccc2)cc1OC`, the “hERG current change (%, negative = inhibition) at 1uM” value is on record as 15.8%. With `Cc1csc2nc(CSc3nc4ccccc4o3)cn12` the figure was 5.11%; with `O=C(CN1c2cccc3cccc(c23)S1(=O)=O)Nc1ccccc1`, 8.59%. With `CCCCOC(=O)/C(=C/c1cn(C)c2ccccc12)NC(=O)c1ccc(OC)cc1` the figure was 13.3%. With `O=C(O)c1ccccc1C(=O)NNc1ccc(Cl)cc1Cl` the figure was -4.28%; with `CC1=C(C)CC(C(=O)Nc2nccs2)C(C(=O)O)C1` (stereo not shown), 23.2%.

Take `Cc1cc(N2C(=O)C(O)=C(C(=O)c3ccco3)C2c2cccc(O)c2)no1` (stereo not shown): the “hERG current change (%, negative = inhibition) at 1uM” value came out at 9.7%. Take `CC1CC(=O)N(CC(=O)NCc2ccco2)c2ccccc2S1` (stereo not shown): the “hERG current change (%, negative = inhibition) at 1uM” value is -2.83%. With `Cc1cccc(-n2nnnc2SCC(=O)Nc2cccc(S(N)(=O)=O)c2)c1` the figure was 4.87%; with `Cc1ccc(C)c(N2CCN(C(=O)CCCn3ncn4c(cc5occc54)c3=O)CC2)c1`, 3.5%.
